The full ranking holds about 18,000 sequences; the median of “TetR repression strength (sort-seq, GFP reporter)” is about 0.23, and the highest 2% start at about 0.68. The list shows a part of the results.
What follows are sequences tested against TetR (class B, Tn10) (UniProt P04483) (assay: TetR repression strength (sort-seq, GFP reporter) (relative to tetO2 = 1); higher = stronger repression). Conditions: E. coli.
Method in brief: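 Escherichia coli SIG10-MAX cells carried a low-copy plasmid library in which eight operator positions were randomized between a constitutive promoter and sfGFP, and TetR was expressed constitutively. After 5 h of growth at 37 °C in LB with 50 µg/mL chloramphenicol, 10^6 cells were FACS-sorted into 13 fluorescence bins, and each bin was Illumina-sequenced. Repression strength was the top bin index plus one minus the read-weighted mean bin, divided by the value for the unaltered operator. Across three independent transformations, only library members with ≥30 reads in every replicate and a CV ≤0.5 were averaged.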

UniProt P04483, sequence (P04483 whole entry): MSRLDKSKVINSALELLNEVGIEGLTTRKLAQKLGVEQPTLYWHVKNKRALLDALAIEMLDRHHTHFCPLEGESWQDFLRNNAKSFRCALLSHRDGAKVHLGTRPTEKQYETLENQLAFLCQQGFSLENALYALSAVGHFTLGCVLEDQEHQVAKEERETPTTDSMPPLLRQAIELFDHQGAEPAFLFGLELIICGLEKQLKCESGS

Row | Sequence | TetR repression strength
1 | TCCCGTGGAGTGTTAGAGA | 0.23
2 | TCCCGATAAGTAGCGGAGA | 0.234
3 | TCCCGGTAAGTGAAGGAGA | 0.14
4 | TCCCCGCAAGTTACAGAGA | 0.267
5 | TCCCAGGGAGTCCGGGAGA | 0.229
6 | TCCCAATGAGTGAAAGAGA | 0.451
7 | TCCCACGTAGTCCTCGAGA | 0.293
8 | TCCCTGCGAGTGGGGGAGA | 0.264
9 | TCCCACGTAGTGGTTGAGA | 0.322
10 | TCCCTCTCAGTTGGTGAGA | 0.339
11 | TCCCCTGCAGTAGGGGAGA | 0.253
12 | TCCCGTGCAGTCGTCGAGA | 0.216
13 | TCCCTTTGAGTGCATGAGA | 0.403
14 | TCCCGTTTAGTGATGGAGA | 0.124
15 | TCCCGGGGAGTGTGTGAGA | 0.226
16 | TCCCTATGAGTTGCGGAGA | 0.383
17 | TCCCGGAAAGTTAGCGAGA | 0.153
18 | TCCCTTTAAGTTATTGAGA | 0.618
19 | TCCCCGTCAGTGAGTGAGA | 0.36
20 | TCCCTGATAGTATTAGAGA | 0.228
21 | TCCCCGCAAGTCTAGGAGA | 0.739
22 | TCCCAAAGAGTGGGTGAGA | 0.189
23 | TCCCGCCCAGTGCAGGAGA | 0.203
24 | TCCCTGATAGTGGCGGAGA | 0.0318
25 | TCCCAATTAGTGCGCGAGA | 0.244
26 | TCCCCATAAGTATTAGAGA | 0.379

Row | Sequence | TetR repression strength
27 | TCCCCTGCAGTCCATGAGA | 0.42
28 | TCCCAAAGAGTACGTGAGA | 0.207
29 | TCCCGGGGAGTGATGGAGA | 0.229
30 | TCCCAATAAGTAGGCGAGA | 0.252
31 | TCCCACGGAGTGTCTGAGA | 0.0542
32 | TCCCGCTCAGTAAGGGAGA | 0.325
33 | TCCCTGGAAGTAATCGAGA | 0.241
34 | TCCCCATGAGTACTCGAGA | 0.261
35 | TCCCATCGAGTCATTGAGA | 0.158
36 | TCCCCACTAGTTCATGAGA | 0.335
37 | TCCCATTGAGTTTGTGAGA | 0.3
38 | TCCCGTTGAGTATCTGAGA | 0.233
39 | TCCCGTCAAGTAAGAGAGA | 0.218
40 | TCCCCTGTAGTGGCGGAGA | 0.139
41 | TCCCGTCGAGTTCGGGAGA | 0.199
42 | TCCCTCAAAGTAGAGGAGA | 0.159
43 | TCCCTCCGAGTTGGAGAGA | 0.404
44 | TCCCCACAAGTAGGGGAGA | 0.172
45 | TCCCTGTCAGTCTTTGAGA | 0.289
46 | TCCCAGCTAGTTTTAGAGA | 0.287
47 | TCCCGGCTAGTATCCGAGA | 0.244
48 | TCCCACTGAGTTGCAGAGA | 0.364
49 | TCCCTTTAAGTGGCTGAGA | 0.498
50 | TCCCTGCTAGTGAACGAGA | 0.155
51 | TCCCTCCTAGTGTGTGAGA | 0.25
52 | TCCCGATCAGTGCCTGAGA | 0.225

Row | Sequence | TetR repression strength
53 | TCCCACGTAGTCCTAGAGA | 0.313
54 | TCCCAACCAGTAATGGAGA | 0.713
55 | TCCCTTTAAGTCACGGAGA | 0.22
56 | TCCCGTAGAGTAGCGGAGA | 0.0731
57 | TCCCCCGGAGTGTTTGAGA | 0.42
58 | TCCCGGCGAGTCGTTGAGA | 0.801
59 | TCCCCCTAAGTTAATGAGA | 0.377
60 | TCCCTGGAAGTAGTCGAGA | 0.115
61 | TCCCATGGAGTGAACGAGA | 0.285
62 | TCCCACTGAGTTATGGAGA | 0.151
63 | TCCCTAATAGTGGGGGAGA | 0.221
64 | TCCCATGCAGTTCAGGAGA | 0.264
65 | TCCCGTGTAGTTTGTGAGA | 0.298
66 | TCCCTAAAAGTGAGCGAGA | 0.32
67 | TCCCGGTTAGTAGTGGAGA | 0.37
68 | TCCCCGGTAGTTCAGGAGA | 0.251
69 | TCCCGTCCAGTATGGGAGA | 0.176
70 | TCCCGATAAGTAGCTGAGA | 0.921
71 | TCCCTTGAAGTCTCCGAGA | 0.276
72 | TCCCGACCAGTACGAGAGA | 0.0115
73 | TCCCAAAGAGTACGGGAGA | 0.092
74 | TCCCGTGGAGTTCATGAGA | 0.16
75 | TCCCCCTGAGTGCCTGAGA | 0.245
76 | TCCCTCTCAGTTGGGGAGA | 0.203
77 | TCCCTACAAGTGGATGAGA | 0.221
78 | TCCCCCGGAGTGAGAGAGA | 0.295

Row | Sequence | TetR repression strength
79 | TCCCAAGCAGTGGGCGAGA | 0.314
80 | TCCCTGAGAGTGGATGAGA | 0.0518
81 | TCCCGACTAGTTAGCGAGA | 0.682
82 | TCCCAAAAAGTTGGTGAGA | 0.318
83 | TCCCTTTGAGTGATTGAGA | 0.263
84 | TCCCCCTGAGTGCGTGAGA | 0.236
85 | TCCCGCAGAGTCAGAGAGA | 0.218
86 | TCCCTGGTAGTTCCAGAGA | 0.111
87 | TCCCGTTGAGTCAGGGAGA | 0.163
88 | TCCCATACAGTTTTAGAGA | 0.332
89 | TCCCGTTAAGTCTGCGAGA | 0.104
90 | TCCCAGTGAGTTGGTGAGA | 0.19
91 | TCCCATGTAGTGGCTGAGA | 0.356
92 | TCCCGATCAGTGGAGGAGA | 0.0905
93 | TCCCTCCCAGTGCCTGAGA | 0.317
94 | TCCCGGAGAGTGCGAGAGA | 0.402
95 | TCCCTTTTAGTGTAGGAGA | 0.239
96 | TCCCTGTAAGTACACGAGA | 0.0138
97 | TCCCCACCAGTGGATGAGA | 1.05
98 | TCCCGTTGAGTTATAGAGA | 0.37
99 | TCCCTTTGAGTAATCGAGA | 0.186
100 | TCCCAGGAAGTAACTGAGA | 0.188
101 | TCCCCTTAAGTGACCGAGA | 0.25
102 | TCCCCTAGAGTAGCTGAGA | 0.274
103 | TCCCGCAGAGTGCATGAGA | 0.032
104 | TCCCTGCAAGTTGGCGAGA | 0.0657

Row | Sequence | TetR repression strength
105 | TCCCCGGCAGTAACGGAGA | 0.0284
106 | TCCCGTAAAGTGCTTGAGA | 0.243
107 | TCCCGCAAAGTTAGCGAGA | 0.238
108 | TCCCGCTTAGTTTCAGAGA | 0.18
109 | TCCCAGGAAGTGACGGAGA | 0.258
110 | TCCCTGATAGTCAGCGAGA | 0.104
111 | TCCCCGTCAGTGACAGAGA | 0.531
112 | TCCCCAGCAGTGTTCGAGA | 0.25
113 | TCCCAGTAAGTTGTGGAGA | 0.265
114 | TCCCGGTGAGTGTCGGAGA | 0.115
115 | TCCCGGTCAGTTGCAGAGA | 0.271
116 | TCCCGGCAAGTCCGCGAGA | 0.181
117 | TCCCAAAAAGTGTGTGAGA | 0.26
118 | TCCCTCAGAGTGAAAGAGA | 0.172
119 | TCCCGTCGAGTGCCGGAGA | 0.363
120 | TCCCAGGCAGTTAGAGAGA | 0.266
121 | TCCCTGAGAGTCCGCGAGA | 0.276
122 | TCCCACCTAGTGCACGAGA | 0.122
123 | TCCCCGGGAGTGTCTGAGA | 0.181
124 | TCCCCGGGAGTGGGAGAGA | 0.182
125 | TCCCTCTCAGTGCGCGAGA | 0.281
126 | TCCCTAAAAGTAGTCGAGA | 0.471
127 | TCCCCGCGAGTTGTAGAGA | 0.0957
128 | TCCCCAGTAGTCACCGAGA | 0.194
129 | TCCCTCATAGTGGGCGAGA | 0.213
130 | TCCCTTCCAGTGTGCGAGA | 0.322

From a collection of fitness landscapes (doi:10.1038/s41467-024-54723-y)
